From PubChem BioAssay AID1508624 (National Center for Advancing Translational Sciences (NCATS), 2021)
The campaign covered roughly 48,000 compounds. About 120 (0.25%) were called active. Roughly 4% stayed inconclusive and do not appear here. The call rests on the fitted dose curve; in most records, active means well fitted activation curve with a large enough effect; inconclusive means small, poorly fitted or top-dose-only effect, or another doubt; inactive means no such curve, though single readings can be large or run the other way. The list shows a part of the results.

Experiment: Primary qHTS for Identification of Small Molecule Activators of Huntingtin-Antisense Promoter Activity; further: nearly all actives have a fitted effect of over 55% in size
Conditions: HEK293 HTT-AS promoter firefly luciferase reporter, 24 h; series mostly up to 57.5 µM; activity change, positive = activation: at the top concentration
Method in brief: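 HEK293 cells carrying firefly luciferase reporters were seeded at 2,500 per well in Opti-MEM and cultured for 24 h. They were then treated with compounds at up to 57.5 uM final for 24 h at 37 degrees C before Dual-Glo luminescence readout.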
Potency means the concentration at half of the fitted maximal effect.

Activity change, positive = activation, inactive:
COc1ccc2c(CNCCc3ccco3)c(C(=O)O)n(Cc3ccc(F)cc3)c2c1 -18.6%, CCn1cc(C(=O)NCc2ccc(Cl)cc2)c(=O)c2cc(S(=O)(=O)N3CCc4ccccc4C3)ccc21 -3.16%, CC(=O)Nc1nonc1-c1nnc(SCC(=O)Nc2c(C)cccc2C)n1-c1ccccc1 -11.9%, COc1cc(Cl)c(C)cc1NC(=O)CCn1cnc2onc(-c3ccc(F)cc3)c2c1=O -24.1%, CC(CNC(=O)Cn1c(-c2cccs2)cc2cc(Cl)ccc21)c1ccccc1 (stereo not drawn) -19.8%, COCC(C)NS(=O)(=O)c1ccc(N2CCCCS2(=O)=O)cc1 (stereo not drawn) -14.5%, CCOC(=O)c1ccc(NC(=O)c2sc3nc4n(c(=O)c3c2C)CCC4)cc1 -19.3%, CCN1C(C(=O)c2ccccc2)=C(NC(=O)c2ccc(Cl)cc2)c2ccccc2S1(=O)=O -26%, COc1cc(OC)cc(-c2ccc3ncc4ccc(=O)n(-c5ccc(N6CCNCC6)c(C(F)(F)F)c5)c4c3c2)c1 -33.7%, O=C(O)C(=O)Nc1cccc(C2=NN=N[N]2)c1 -11.9%, CC(C)CNC(=O)C(=O)Nc1c2c(nn1-c1ccc(Cl)cc1)CSC2 -20.6%, CC(=O)c1ccc(NC(=O)CSc2nccn2C2CCCC2)cc1 9.17%, Cc1cccc(N2CCN(c3ccc4cc(S(=O)(=O)N5CCC(C)CC5)ccc4n3)CC2C)c1 (stereo not drawn) -19.4%, CCOc1ccc(NC(=O)CSc2nc3ccccc3nc2N2CCOCC2)cc1 0%, COc1ccc(CNC(=O)c2cc3cccc4c3n2CC(C)S4)cc1 (stereo not drawn) -15.8%, O=c1c(N2CCN(c3ccc(F)cc3)CC2)csc2ccc(F)cc12 2.97%, COc1ccc(S(=O)(=O)NC(C)(C)CO)cc1-c1nnc2c3ccccc3c(C)nn12 -4.56%, CCCn1c(=O)c2sccc2n2c(CCCC(=O)N3CCN(c4ccc(OC)cc4)CC3)nnc12 -23.2%, CC1CCN(S(=O)(=O)c2ccc3nc(Nc4cccc(F)c4)ccc3c2)CC1 -47.5%, C[C@@H]1C(=O)O[C@H]2CC34[C@H]5C[C@@H](C(C)(C)C)C36[C@H](OC(=O)[C@@H]6O)O[C@@]4(C(=O)O5)[C@]21O (stereo partly drawn) -7.09%, Cc1nn(-c2cccc(Cl)c2)c2nc(-c3cccnc3)cc(C(F)(F)F)c12 -4.68%, COc1ccc(C)cc1NC1(c2ccccc2)C(=O)c2ccccc2C1=O -7.15%, COc1ccc(OC)c(N(C)S(=O)(=O)c2ccc3c(c2)NC(=O)CC(=O)N3)c1 -6.49%, COc1ccc2nc(N3CCN(C(=O)CS(=O)(=O)c4ccc(C)cc4)CC3)sc2c1 -7.41%, CN(C)c1ccc(NC(=O)CC(NCc2cccnc2)C(=O)O)cc1 (stereo not drawn) 0.167%, Cc1ccccc1NC(=O)c1sc2nc3n(c(=O)c2c1C)N=C(c1ccccc1)CS3 -1.69%, COc1cccc(CNc2sc3c(c2C(=O)Nc2ccc(OC)cc2OC)CCC3)c1 -8.12%, Cc1ccc(NC(=O)CCCn2c(=O)c3cccn3c3cccnc32)c(C)c1 -16.2%, CCC(Sc1nc2nccnc2c(=O)n1Cc1ccc(Cl)cc1)C(=O)NC1CCCCC1 (stereo not drawn) -20.5%, O=c1c(-c2cc(-c3ccccc3)nc3c2COc2ccc(Cl)cc2-3)coc2ccccc12 -4.25%, Cc1ccc(-c2cnc(C3CC3)o2)cc1S(=O)(=O)Nc1ccc(F)cc1Cl -29.9%, CCOc1ccc(NC(=O)c2cnn3c2NC(C)=C(C(=O)Nc2ccc(Cl)cc2)C3c2ccc(OC)c(OC)c2)cc1 (stereo not drawn) -10.2%, CCOC(=O)c1ccc(O)cc1 13.1%, COc1ccc(N(C)C(=O)c2oc(=O)c3ccccc3c2-c2ccc(C)cc2)c(OC)c1 -35.1%, N#Cc1c(-n2ncnc2-c2ccccc2Cl)sc2c1CCCCC2 -16.9%, O=C(CCC1N=C2c3ccccc3N=C(SCc3ccc(F)cc3)N2C1=O)N1CCN(c2ccccc2)CC1 (stereo not drawn) -4.78%, COc1ccc(N2CCN(C(=O)CCCCn3c(=O)[nH]c4ccsc4c3=O)CC2)cc1 -18.4%, Clc1ccc(-c2nc3ncccn3c2Nc2ccc3c(c2)OCCO3)cc1 2.84%, CC(C)c1ccc(CNC(=O)c2ccc(N3CCCC3)c(NC(=O)NCc3ccc(F)cc3)c2)cc1 -8.44%, CCOC(=O)C1CCN(C(c2ccc(C)cc2)c2sc3nc(-c4ccco4)nn3c2O)CC1 (stereo not drawn) -4.7%, CCOc1ccc(/C=C(\C#N)C(=O)Nc2sc3c(c2C(=O)OC)CCC3)cc1OC -1.08%, Cc1cccc(Nc2cc(C)nc3nc(-c4ccccc4)nn23)c1 -22.1%, CC1=C(C(=O)Nc2cccc(F)c2)C2(CCCCC2)OC1=O -18.2%, CCOCCCNC(=O)CN1C(=O)COc2ccc(S(=O)(=O)N3CCOCC3)cc21 -0.074%, COc1ccc(-c2cc(C(F)(F)F)nc(SCCC(=O)Nc3ccc(F)cc3F)n2)cc1 -14.4%, CC(=O)c1ccc(NC(=O)CSc2nnc3c(n2)[nH]c2ccccc23)cc1 -17.4%, O=C(CSc1ccc2nc(-c3ccccc3)cn2n1)Nc1ccccc1 -88.3%, O=C(Nc1ccc(F)cc1F)c1ccc(-n2cnc3cccnc32)cc1 12.5%, Cc1nc(-c2ccc(F)cc2)sc1CCNC(=O)c1ccccc1C(F)(F)F -12.4%, Cc1ccc2oc(C(=O)NCC(c3ccc(Cl)cc3)N3CCOCC3)c(C)c2c1 (stereo not drawn) -25.1%, Cc1ccc(CNC(=O)c2cc3c(=O)n4cccc(C)c4nc3s2)cc1 3.64%, Cc1ccc(CNC(=O)CN2C(=O)C3CCCCN3c3ccc(C(=O)N(C)C)cc32)cc1 (stereo not drawn) -4.31%, COc1ccccc1NC(=O)CN1C(=O)C(C)(C)c2ccccc21 -10.4% [at 11.5 µM, percent change from vehicle, -100% = no light], CC1=C(C(=O)Nc2ccccc2C)C(c2sccc2C)n2ncnc2N1 (stereo not drawn) -12.6%, Cc1ccc(S(N)(=O)=O)cc1NC(=O)c1c(-c2c(Cl)cccc2Cl)noc1C -9.81%, Cc1cccc(CSc2ncc(Cl)c(C(=O)Nc3nnc(C)s3)n2)c1 -23%, Cc1ccc(-c2nc(CCNC(=O)C(=O)Nc3ccc(C)c(Cl)c3)cs2)cc1 0.415%, COc1ccccc1C(=O)Nc1ccccc1C(=O)OCc1cc(=O)n2ccsc2n1 4.46%, CCOC(=O)c1sc(NC(=O)c2nc3nc(C)cc(C(F)F)n3n2)c(C(=O)OC(C)C)c1C 3.53%, CCCOc1ccc(CNC(=O)CCCN2C(=O)CSc3c2c(C)nn3-c2ccccc2)cc1 -24.2%, CC(C)(C)NC(=O)[C@@H]1CN(Cc2cccnc2)CCN1C[C@@H](O)C[C@@H](Cc1ccccc1)C(=O)N[C@H]1c2ccccc2C[C@H]1O -11.5%, CCOc1ccccc1NC(=O)CSc1nc2cc(OC)c(OC)cc2c2nc(CCn3c(C)nc4ccccc43)nn12 -7.54%, N#Cc1cccc(NC(=O)C2CCN(S(=O)(=O)c3ccc4c(c3)CCCN4C(=O)C3CCC3)CC2)c1 -26%, CCCN(CCC)C(=O)Cn1c(SCc2cccc(F)c2)nc2cccnc21 -9.29%, CCCS(=O)(=O)c1c(S(=O)(=O)CCC)c2cc(C(C)(C)C)ccn2c1C(=O)c1ccc(C)cc1 -21%, COc1ccc(Nc2nnc(-c3cc4cc(Cl)ccc4oc3=O)s2)cc1 11%, CCC(C)NC(=O)c1ccc(Cn2c(=O)c3cccn3c3cccnc32)cc1 (stereo not drawn) 2.25%, COc1cccc(CN2C(=O)c3ccccc3C2C(=O)NCCc2ccccc2)c1 (stereo not drawn) -5.56%, COc1cc(SC)ccc1C(=O)N1CCn2c3c(c4cc(C)ccc42)CCCC31 (stereo not drawn) -10.1%, COc1ccccc1CNC(=O)CSc1nc2nc(C)c(Cc3ccccc3C)c(C)n2n1 -16.3%, O=C(NCc1ccc(Cl)cc1)C1CCN(C(=O)c2cnn(-c3ccccc3)c2-n2cccc2)CC1 -39.4%, O=C(CCCCCn1c(=O)[nH]c2ccsc2c1=O)NCc1ccccc1 -5.26%, CCOc1ccc(CNC(=O)Cn2nc(N3CCN(c4ccccc4)CC3)ccc2=O)cc1 -26.4%, Oc1c(C(c2cccc(Br)c2)N2CCCC2)sc2nc(-c3ccco3)nn12 (stereo not drawn) -19.9%, Cc1ccc(/C=C/c2onc(C)c2S(=O)(=O)N2CCC(C(=O)Nc3cccc(C#N)c3)CC2)cc1 -44.7%, CCN(CC)CCNC(=O)CN1C(=O)CSc2ccc(S(=O)(=O)N3CCOCC3)cc21 -3.71%, CCOC(=O)COc1ccc(CC)cc1C(=O)c1ccn2nc(-c3ccc(C)cc3)cc2n1 -37.2%, Cc1ccccc1CSc1nc2c([nH]c3ccccc32)c(=O)n1-c1ccccc1 -20.4%, CCc1nnc2c(NCc3ccccc3)nc3ccccc3n12 -5.82%, O=C(NCCCN1CCN(c2ccccc2F)CC1)c1ccc2nc(Cc3ccccc3)oc2c1 -27.9%, Cc1ccc(C(=O)N2CCN(c3ccccc3)CC2)cc1NC(=O)c1nsc2ccccc12 -6.64%, N#Cc1c(C(F)(F)F)cc(-c2cccs2)nc1SCC(=O)Nc1cccc(Br)c1 -21.6%, CC(C)c1ccc(NC(=O)C2CCCN(S(=O)(=O)c3ccc4[nH]c(=O)oc4c3)C2)cc1 (stereo not drawn) -15.1%, CCN(CC)S(=O)(=O)c1ccc2c(c1)c(=O)c(C(=O)N1CCN(c3ccc(OC)cc3)CC1)cn2C -11%, CCc1ccccc1NC(=O)c1nc2nc(C)cc(C(F)F)n2n1 -0.174%, Cc1ccc(CNC(=O)CN2N=C(c3ccc(C)cc3)CCC2=O)cc1 -3.53%, CCCN(CCC)CCCNC(=O)Cn1ncn2c(cc3sc(CC)cc32)c1=O 2.98%, Cn1c(-c2cccc(Br)c2)cnc1NCc1cccc(F)c1 -23.4%, COc1ccc2cc1Oc1ccc(cc1)C[C@H]1c3c(cc4c(c3Oc3cc5c(cc3OC)CCN(C)[C@@H]5C2)OCO4)CCN1C -13.6%, Cc1cccc(-c2nnc(SCC(=O)Nc3ccc(C)c(C)c3)o2)c1 -17.5%, Cc1ccc(OCC(=O)N(Cc2ccc(N(C)C)cc2)CC2CCCO2)cc1C (stereo not drawn) -13.2%, O=C(c1cccc([N+](=O)[O-])c1)N1c2nc(-c3ccco3)nn2C2(CCCCC2)[C@@H]2CCCC[C@@H]21 -31%

Potency, active:
CC(C)CC(=O)Nc1cccc(-c2cn3cccnc3n2)c1 15.8 µM
